Measurements published in ChEMBL document CHEMBL4888484, “Replenishing the malaria drug discovery pipeline: Screening and hit evaluation of the MMV Hit Generation Library 1 (HGL1) against asexual blood stage Plasmodium falciparum ,using a nano luciferase reporter read-out” (2022).
In all, about 150,000 compounds went through this assay and about 540 (0.36%) showed an effect of 50% or more. This is one part of the list.

test system: Plasmodium falciparum; test: Primary screen in NF54 nanoGlo assay, in single point, at 2uM, 72h; a lower Z score goes with more inhibition; format: functional, Erythrocyte; conditions: timepoint 72 hour

SMILES | % Inhibition | Z score
Cc1c(C(=O)OC[C@@]2(C)CCCO2)cnn1CC(C)C | -8% | 1
COc1ccccc1C(=O)N1CCN(c2cc(N(C)C)nc(C)n2)CC1 | -4% | 0.61
COC(=O)c1ccc(CN2CCC3(CC2)C[C@@H]3C(=O)OC)nc1 | -6% | 0.88
CC(C)C1NC2(C(=O)Nc3ccccc32)C2C(=O)N(c3ccc(Br)cc3)C(=O)C12 (stereo not drawn) | -5% | 0.47
CCc1nc(C)c(CNS(=O)(=O)N2CCOCC2)s1 | -11% | 1.37
Cc1occc1C(=O)NC(C)C1CC2CCC1C2 (stereo not drawn) | 4% | -0.52
Cc1ncsc1CN(Cc1ccccc1)C(=O)C[C@H](C)n1ccnc1 | 2% | -0.44
Oc1cccc(-c2cn(Cc3scnc3-c3ccccc3)nn2)c1 | -14% | 1.93
Cc1nc(CNC(=O)c2cc(=O)[nH]c(C3CC3)n2)ccc1[C@H](C)O | -11% | 2.25
O=C(NC[C@H]1CCCO1)c1cccc2cc(O)ccc12 | -9% | 1.17
CC(C)(C)CNC(=O)C(C)(C)NC(=O)Nc1nc2ccccn2n1 | -2% | 0.24
Cn1nccc1[C@H](O)c1cc2n(n1)CCN(C1Cc3ccccc3C1)C2 | 9% | -1.19
OCc1ccc(-c2nccn2-c2ccc3ncsc3c2)o1 | -3% | 0.55
C[C@H](NS(=O)(=O)CCCCC#N)C(=O)NC1CCCC1 | -2% | 0.33
COc1cccc(CNC(=O)N[C@H]2CCN(c3ccc(F)cc3)C2=O)c1 | 3% | -0.38
CC(N[C@@H]1CCCC[C@H]1O)c1cc(Br)ccc1F (stereo partly drawn) | -2% | 0.23
Fc1cccc(C2(c3nc([C@@H]4CCCO4)no3)CCC2)c1 | -8% | 1.06
CC1=C(C)CN(C(=O)CN2CCCCC2=O)CC1 | -16% | 1.86
CCCn1c(C)nnc1COc1ccccc1-c1nccs1 | 0% | 0.07
CN(C)C(=O)NCC(=O)N1CCC[C@](C)(C#N)C1 | -11% | 0.94
COc1ccc(CCN(CCc2nc(-c3ccc(C)cc3)no2)C(=O)COCc2ccccc2)cc1OC | 0% | -0.06
CN=C(NCCCOC[C@H]1CCCO1)NCc1ccc(N(C)C)cc1 | -13% | 1.13
CC(C)CCN1CC(=O)N(c2ccc(C(C)C)cc2)C2CS(=O)(=O)CC21 (stereo not drawn) | 4% | -0.6
C[C@@H](C(=O)N1CCCCC1)N(c1ccc2c(c1)OCCO2)S(C)(=O)=O | -12% | 1.94
CN([C@H]1CCc2ccccc21)S(=O)(=O)c1cccs1 | 2% | -0.24
Cc1sc(N)nc1-c1ccc(OCCN2CCOCC2)cc1 | -4% | 0.59
CC(=O)Nc1cn2c(N)nc(C(=O)Nc3ccc(C)cc3)c2nn1 | -12% | 1.58

SMILES | % Inhibition | Z score
Cc1c(Cl)ccc2c(C(=O)N[C@@H]3CCNC3)cc(-c3ccco3)nc12 | 4% | -0.6
CN(c1ccc(N)cc1)c1ccc(C(N)=O)nn1 | -12% | 1.84
Cn1ccc(NC(=O)c2sccc2S(=O)(=O)N2CCCC[C@@H]2CCO)n1 | 0% | -0.06
Cc1c(NC(=O)C2CCC2)c(=O)n(-c2ccccc2)n1C | 1% | -0.14
COc1cc(Br)ccc1C1NC(=O)C2COCCN21 (stereo not drawn) | 38% | -5.16
C#CCN(C[C@H]1CCCO1)C(=O)Nc1ccccc1-c1nnnn1C1CC1 | -7% | 0.99
CCc1ccc(C2c3c(n[nH]c3O)CC(C)(O)C2C(=O)Nc2ccccc2)cc1 (stereo not drawn) | 3% | -0.38
O=S(=O)(N[C@@H]1C=CCCC1)C1COC1 | -3% | 0.41
NC(=O)c1cnc2n1CCN(C(=O)c1nc3c(s1)CCCC3)C2 | -18% | 2.31
Cc1ccc(NC(=O)c2ccc(C)c3ccccc23)cc1-c1nc2ncccc2o1 | -16% | 1.87
O=S(=O)(CCC1CCCO1)NC1CCN(CC2CCCC2)C1 (stereo not drawn) | 1% | -0.19
CC(C)CC(CO)NC(=O)NC1CCOC1c1ccc(F)c(F)c1 (stereo not drawn) | -6% | 0.72
O=C(c1oc(C2CC2)nc1C(F)F)N1CCOc2ccncc21 | 3% | -0.56
Cc1cccc(C(=O)NCCC2CCS(=O)(=O)CC2)c1O | -1% | 0.12
COc1ccc(C(=O)N[C@@H]2CCC[C@@H]2C(=O)NC2CCCC2)cc1 | -8% | 1.07
COCCN(C)c1nnnn1Cc1cc(Cl)c2c(c1)OCCO2 | -12% | 2.31
Cn1c(=O)[nH]cc(C(=O)Nc2ccc(N3CCOCC3)cc2)c1=O | -3% | 0.57
CS(=O)(=O)N1CC(CS(=O)(=O)N2CC(C3CC3)C2C2CC2)C1 (stereo not drawn) | -2% | 0.33
CCOC(=O)c1c(CN2CCN(c3ncccn3)CC2)nc2ccccc2c1-c1ccccc1 | -8% | 0.91
CN(C)c1cccc(C(=O)N2CCC3(CC2)Nc2ccc(Cl)cc2-n2cccc23)c1 | -7% | 0.96
O=C(NCCn1cccn1)[C@H]1CCN(c2ccc(C(F)(F)F)cn2)C1 | -1% | 0.28
O=C(c1cc(F)ccc1Cl)N1CCCN([C@H]2CCN(CC3CC3)C2=O)CC1 | -13% | 1.7
CCCN1C(=O)c2cc(C(=O)N3CCN(C)CC3)nn2C[C@@]1(C)C(=O)NC1CCCC1 | 16% | -1.84
COc1cc(N/C(=N\S(=O)(=O)Cc2ccccc2)Nc2nc(C)cc(C)n2)cc(OC)c1 | -19% | 2.54
COc1ccc(-c2cc3n(n2)C[C@@](C)(C(=O)NCc2ccccc2)N(Cc2ccccc2Cl)C3=O)cc1 | 17% | -2.69
CC(C)NC(=O)NCC[C@H]1CCCN(Cc2ccco2)C1 | 1% | -0.1
CC(C)CC1OCC2(COC(=O)c3cccnc3)COC(CC(C)C)N12 (stereo not drawn) | -24% | 2.78
